Test results published in the supplement of paper PMC10126150.
Sequences with one replicate were seen in a single cluster, so their values are uncertain.

System: ATP
Assay: switch fluorescence ratio, 500 uM ATP over buffer (Cy3 cluster intensity, sum of 5 cycles each) (fold (ratio)); higher = stronger signal-on switching upon ATP binding; sequences stand for … in TCGTCGGCAGCGTCAGATGTGTATAAGAGACAGTTTTTTTTTTTTTTTTTTTTTTTTT…TC
Conditions: aptamer strand: ATP DNA aptamer (quencher-CACCTGGGGGAGTATTGCGGAGGAAGG + anchor), 100 nM annealed; ATP concentration: 500 uM; one replicate
Procedure, shortened: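 Five buffer/ATP imaging cycles were run on Cy3-labelled switching-strand clusters on a modified Illumina MiSeq flow-cell, with NaOH stripping and re-annealing between cycles. In each cycle, clusters annealed to 100 nM quencher-labelled ATP aptamer were imaged in selection buffer, then after 15 min with 500 uM ATP at 22 °C. Per cluster, the fluorescence ratio is summed target-cycle over summed buffer-cycle Cy3 intensity, averaged per switch-domain sequence. Only clusters within 100-1000 RFU were kept.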
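Further: ATP exposure 15 min at 22 °C before imaging.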

Row | Sequence | switch fluorescence ratio
1 | TACCTACCGG | 1.05
2 | TTCAAATTA | 1
3 | AATTACAACT | 1.03
4 | TCCAACTCCT | 1.07
5 | TTACCATCCA | 1.01
6 | AATCTATGAA | 1.02
7 | TAGGACTCT | 0.992
8 | CGTCTCGGCT | 1
9 | GATTTGCTCG | 0.99
10 | GAAATTGAGA | 0.976
11 | CTTTGCCGCT | 1.01
12 | TACGAATCGT | 0.981
13 | TAAGCTCGTA | 0.963
14 | TGCCACATTT | 1.58
15 | TGAAACTTTT | 1
16 | TGTAGGTCTC | 1.06
17 | CCAAGATTTC | 1
18 | CATGCAAACT | 1.16
19 | TATTGACGAT | 1.08
20 | ATATAGATCG | 1.03
21 | AGGCTTGATC | 0.992
22 | CCCGTGGCTT | 1.66
23 | ACACAAGTCT | 1.03

Row | Sequence | switch fluorescence ratio
24 | CAAAGATTGG | 0.978
25 | ATGAAGCGAC | 1.83
26 | TTAGTGGTGA | 0.991
27 | CACTTGATCG | 1.05
28 | ACGCCGCTCT | 1.13
29 | AAGGTCTTG | 1.06
30 | AGGGATTACT | 1.03
31 | GTGGATCATT | 0.995
32 | AGCGGAAGTG | 1.02
33 | TGGCGTCAAA | 1.03
34 | TTGGTATTTC | 0.969
35 | TTGGAGCAAT | 3.89
36 | AGATGCTTTT | 1.03
37 | CCATCTTTTT | 0.948
38 | GACACTA | 1.26
39 | GCAATCGCGT | 1.02
40 | GCTTAAGAAC | 0.969
41 | GCTTATTGAC | 1.05
42 | GTTGTGCT | 0.969
43 | GCTTTTACAT | 1.05
44 | GCTACCCACG | 1.48
45 | CGGGTACAC | 0.977
46 | GGGTAAACAA | 1.01

Row | Sequence | switch fluorescence ratio
47 | AGCTTCGAGT | 0.984
48 | ATCCCGGTGT | 1.65
49 | ACGCGTAGGC | 1.09
50 | TGAAATCGAG | 2.99
51 | ACGACGTTCT | 0.985
52 | GAGATGGGC | 1.15
53 | AGCACGCATG | 0.996
54 | ATTTTCGACG | 1.06
55 | AACGTGTGTT | 1.01
56 | GCGGACGAGC | 1.07
57 | GACACATCGA | 1.04
58 | GAAAGCAACT | 1.7
59 | TCCGGCATTT | 1.14
60 | TCCTTGCGCT | 1.61
61 | TAAGTCCACA | 1.09
62 | TGCTTAGAAA | 0.991
63 | TAACTAGGGT | 1.06
64 | CCTTGACGCT | 1.22
65 | AGACACGCA | 1.21
66 | AAGTGATGTA | 0.979
67 | GAGAGATACC | 1.05
68 | GCTGAACCCA | 1.08
69 | TGCTAGTATG | 0.983

Row | Sequence | switch fluorescence ratio
70 | GGCCTCCGAA | 2.17
71 | GCTGAATGTT | 1.01
72 | AGAACGTATT | 0.998
73 | TCGGACACA | 0.953
74 | CGGGATTAA | 0.975
75 | TCGCAGCCAG | 1.1
76 | TGGAGCCCGC | 1.01
77 | CTAATGTGGA | 1.01
78 | TGCGCCCAAC | 1.16
79 | TTATAATTAA | 1
80 | TAAACTGTG | 1.02
81 | GATCCCTTTT | 0.986
82 | CACAGGGGGC | 1.14
83 | CCCCGCTTTG | 3.2
84 | GATTAGAGGT | 0.964
85 | GCTGTTGTGA | 0.958
86 | GCTATCAGAG | 0.954
87 | CTGGGGACGA | 0.998
88 | GAGGGCCCAT | 0.974
89 | ACAATAAGCG | 1.05
90 | GATTTTCATC | 0.991
91 | GACGCCGTAG | 1
92 | TGTATGCCT | 1.04

Row | Sequence | switch fluorescence ratio
93 | CGGCAAGTTA | 1.07
94 | GTGTATTGCC | 1.01
95 | CGGAAGACAC | 1.1
96 | TTTATAGACA | 0.991
97 | CGACTAACTT | 1.11
98 | CTTAGAACCA | 0.953
99 | TGATTAGGGA | 1.02
100 | GGTTCTGGCA | 1.01
101 | ATACTTTCAT | 1.01
102 | ACGAGCACGC | 1.14
103 | TAGGTTACTA | 1
104 | GTTTATCTAG | 0.983
105 | AACTAAGTCT | 0.948
106 | AGGAGAATCG | 1.04
107 | ATTGTCAGTA | 0.97
108 | CAGAACCGTG | 0.996
109 | CAGATTGGAA | 0.988
110 | ATTTCTTCTG | 0.962
111 | AGTGGATCTG | 1.01
112 | GGTCGTGTCT | 0.999
113 | TTTCCATGCT | 1.04
114 | GGCAGGGCGG | 0.999
115 | ACTTGATGTC | 0.945

Row | Sequence | switch fluorescence ratio
116 | GCATGTTTCG | 1
117 | TCTGCTCCCT | 1.11
118 | AGATGATATC | 1
119 | AGGCCCGCGG | 0.994
120 | GATTATGCAA | 1.05
121 | ATAACCCGAG | 1.03
122 | TAGAGCCCCG | 1.01
123 | ACTCGTTTAA | 1.01
124 | CAATGGCATG | 0.968
125 | GGTGGCAGGC | 0.993
126 | TATAATTACT | 1.05
127 | TACCGGCGAC | 1.1
128 | TTTGCTAGGC | 1.02
129 | CGAATTAAAG | 1.02
130 | CATGCCTTTC | 1.23
131 | CCAAGACGTC | 0.969
132 | TTGCCCGAGC | 1
133 | TACTAAGGGA | 1.02
134 | GAATTCCCAG | 1.01
135 | CGTGCGGAGA | 1.08
136 | GAGTGGTCCA | 1.03
137 | GGGCTTGTTG | 0.988
138 | TGTCACTTG | 1.02

Row | Sequence | switch fluorescence ratio
139 | GCACTTGCTT | 0.996
140 | GATTTATTCC | 1.02
141 | CTGATAGCCA | 1.09
142 | TCGGCTGGAG | 0.959
143 | TCAACGCAGT | 1.05
144 | AAACTATGGT | 1.04
145 | ATAAAGTCCG | 0.993
146 | TTCGTAGGT | 0.974
147 | AACCGCTTCA | 1.1
148 | TCGAGAGAAG | 1.01
149 | CCGACAGGAC | 2.43
150 | TTGGGACCGC | 0.96
151 | GCGCATGCG | 0.978
152 | GGGGCTATTG | 1
153 | TATCGTGAAG | 1
154 | TCTTTATAA | 0.988
155 | AGGGTGTGTT | 0.955
156 | TTCCGTTCTC | 1.14
157 | ATTCGTCCCA | 1.04
